# Reference: the supplement of paper PMC12217912
# Some of the results follow. Sequences were assembled here from the parent chain. Values near 0.05 are background.
# B1: TEV protease; numbered along this chain (parent)
# chain: MGESLFKGPRDYNPISSSICHLTNESDGHTTSLYGIGFGPFIITNKHLFRRNNGTLVVQSLHGVFKVKDTTTLQQHLVDGRDMIIIRMPKDFPPFPQKLKFREPQREERICLVTTNFQTKSMSSMVSDTSCTFPSGDGIFWKHWIQTKDGQCGSPLVSTRDGFIVGIHSASNFTNTNNYFTSVPKNFMELLTNQEAQQWVSGWRLNADSVLWGGHKVFMVKPEEPFQPVKEATQL
# Variants of: B1
# Assay: raw area under fraction-flipped curve 0-4 h after induction (AUC4h, not background-subtracted), DNA-recorder readout of cleavage of the substrate (dimensionless); higher = more cleavage of the substrate by the protease variant
# Details: temperature: 34 °C; time window: 0-4 h after rhamnose induction
# Experimental: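 In vivo DNA recorder in E. coli TOP10(DE3) ΔrhaA at 34 °C. Each TEVp single-site mutant (parent TEVp 0) is paired with a single-site variant of the 7-mer TEVs (canonical ENLYFQ|S). The substrate sits between flexible linkers in a Bxb1-sfGFP-TEVs-SsrA fusion, so cleavage stabilises Bxb1 and speeds flipping of a recombination array, read by NGS. The value is the raw area under the fraction-flipped curve over 0-4 h after rhamnose induction (AUC4h), with ≥20 reads per time point. It is not background-subtracted; inactive controls average about 0.047.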
# 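Further: Bxb1 expression induced with 0.2% (w/v) L-rhamnose at OD600 near 0.5, cultures sampled hourly, flipped fraction per protease–substrate barcode pair counted by paired-end Illumina sequencing.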
Variant,area with substrate ENAYFQS,area with substrate ENCYFQS,area with substrate ENDYFQS,area with substrate ENEYFQS,area with substrate ENFYFQS,area with substrate ENHYFQS,area with substrate ENIYFQS,area with substrate ENKYFQS,area with substrate ENMYFQS,area with substrate ENNYFQS,area with substrate ENPYFQS,area with substrate ENQYFQS,area with substrate ENRYFQS,area with substrate ENTYFQS,area with substrate ENVYFQS,area with substrate ENGYFQS,area with substrate ENSYFQS,area with substrate ENWYFQS,area with substrate ENYYFQS
T55Q,0.0672,0.0866,0.0656,0.0538,0.0743,0.0585,0.108,0.0627,0.0696,0.062,0.0671,0.0626,0.0599,0.0607,0.0567,–,–,–,–
Q75N,0.0759,0.0599,0.0421,0.0623,0.038,0.065,0.0517,0.088,–,0.0485,0.0576,0.0643,0.0817,–,0.042,0.0576,0.0645,–,–
K46N,0.0595,–,0.0631,0.0566,–,–,–,0.0477,–,0.0615,–,0.0655,–,–,0.0614,0.0657,0.0834,–,–
F38R,0.0532,0.053,0.0485,0.0538,0.0539,0.0482,0.0608,0.0435,–,0.0521,0.06,0.0612,0.0566,0.0721,0.0549,0.0574,0.0608,0.0377,0.066
L56R,0.0595,0.0366,0.0579,0.0615,0.042,0.0384,–,0.0476,0.0377,0.051,0.0369,0.0249,0.047,0.0381,0.0355,0.0389,–,0.0359,0.0549
L56F,0.0579,0.069,0.061,0.0598,0.0599,0.0553,0.0848,0.0789,–,0.0585,0.0625,0.045,0.0572,0.0487,0.0653,0.0684,0.0663,–,0.0639
L56H,0.0722,0.051,0.0379,–,–,0.0529,0.0492,0.0551,0.0502,–,–,0.0501,0.0251,–,0.0654,0.0503,–,0.0483,0.0589
L56G,0.0708,0.0587,0.0454,0.0444,0.0455,–,–,–,0.0501,0.0128,0.0485,0.0416,0.0358,0.0103,0.0399,–,0.0521,0.0452,–
L56K,0.0316,0.0486,0.0379,0.0482,0.0403,–,–,0.052,0.0324,–,0.0317,0.0476,0.0339,0.0592,0.0512,0.0451,0.0452,–,–
L56A,0.0421,0.0445,0.0549,0.0548,0.0513,–,0.0779,–,0.0564,0.0788,–,0.0417,0.0457,0.0487,0.0591,0.0502,0.0504,–,–
I36P,0.0547,–,0.0471,0.0393,0.0486,0.0444,0.0436,0.0276,–,0.0441,–,0.0418,0.0224,0.034,0.0483,0.0362,0.0369,–,–
F65A,0.0579,0.0781,–,0.0607,–,0.0771,0.0931,0.0596,–,0.0385,–,0.0549,0.046,0.0672,0.0701,0.0531,0.0621,0.0386,0.0567
H76C,0.0579,0.0665,0.0418,0.0529,0.0686,0.0583,0.13,0.0675,–,0.0659,0.0579,0.0679,0.0644,0.059,0.0689,–,0.0413,0.047,–
L73V,0.0618,–,0.0681,0.0643,0.0683,–,0.0948,0.0598,0.0804,0.0778,–,0.0413,0.0633,–,0.0688,0.058,0.0628,–,–
G80D,0.0708,–,–,–,0.0678,0.0538,0.156,0.0617,0.0895,–,0.0725,–,0.057,0.0647,–,–,–,–,0.0718
G80E,0.059,0.0725,0.0567,0.0571,–,0.0437,0.134,–,–,–,0.0561,0.0647,0.0487,0.0503,0.0785,0.0537,0.0968,–,0.0672
G80A,0.0354,0.0782,0.0408,–,0.0743,–,–,–,0.0781,–,0.0718,0.0573,0.0646,0.0578,–,0.0611,0.0653,–,0.064
Q74S,0.0691,0.0768,0.0688,0.0632,0.0444,0.045,0.0924,0.0573,–,0.0409,0.0637,0.0549,–,0.0658,0.0711,0.0392,–,–,–
L48P,0.0405,–,0.0688,–,0.057,–,0.0674,–,0.0505,–,0.0533,0.057,–,0.0615,–,0.0078,0.0611,–,–
L48D,0.0754,0.0632,0.0565,0.067,0.0562,0.0853,0.0455,0.0666,–,0.0676,0.0541,0.0606,0.0648,0.0541,0.0594,0.063,0.0714,0.0631,–
L48Y,0.0537,0.0665,0.0708,0.0589,0.0635,–,0.0701,–,0.0621,–,–,0.0532,0.0636,0.0688,0.052,–,0.0615,–,–
L61C,0.0551,0.0721,0.0618,0.0632,0.0549,0.0642,0.114,0.0515,0.0849,0.0834,0.0597,0.0593,0.0562,0.0818,0.094,0.0625,0.0677,0.0066,0.0517
L77F,0.0579,0.0567,0.0657,0.0563,0.0619,0.0628,0.0606,–,0.0451,0.0659,0.0688,0.0556,0.0594,0.0682,0.0594,0.0576,0.0579,0.0703,0.0566
N52G,0.0787,0.0608,0.057,0.0598,0.0645,0.0622,0.0839,0.0496,0.0592,0.0561,0.0592,0.0587,0.0549,0.0628,0.0581,0.0682,–,–,0.0588
